This is one part of the list.
Columns and labels:
Experiment in all cases: glycan array binding signal (z-score within array); higher = stronger binding
Conditions in all cases: glycan notation: IUPAC condensed, linker removed
[1] = target: Gal(a1-4)Gal(b1-4)GlcNAc
Method in brief: (§1)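 The binding signal is a Z-score computed within each array and averaged over linkers. Arrays of the same protein sequence at different concentrations or buffers were also averaged together. Data originate from 3228 arrays in the Consortium for Functional Glycomics database, kept only where the protein sequence was available.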

[2] = target: Gal(a1-4)Gal(b1-4)GlcNAc(b1-2)Man(a1-3)[Gal(a1-4)Gal(b1-4)GlcNAc(b1-2)Man(a1-6)]Man(b1-4)GlcNAc(b1-4)GlcNAc
Method in brief: as §1

[3] = target: Gal(a1-4)Gal(b1-4)GlcNAc(b1-3)Gal(b1-4)Glc
Method in brief: as §1

[4] = target: Gal(a1-4)GlcNAc
Method in brief: as §1

[5] = target: Gal(a1-6)Glc
Method in brief: as §1

[6] = target: Gal(b1-2)Gal
Method in brief: as §1

[7] = target: Gal(b1-3)Gal
Method in brief: as §1

[8] = target: Gal(b1-3)Gal(b1-4)GlcNAc
Method in brief: as §1

[9] = target: Gal(b1-3)Gal(b1-4)GlcNAc(b1-2)Man(a1-3)[Gal(b1-3)Gal(b1-4)GlcNAc(b1-2)Man(a1-6)]Man(b1-4)GlcNAc(b1-4)GlcNAc
Method in brief: as §1

[10] = target: Gal(b1-3)GalNAc
Method in brief: as §1

[11] = target: Gal(b1-3)GalNAc(a1-3)[Fuc(a1-2)]Gal(b1-4)Glc
Method in brief: as §1

[12] = target: Gal(b1-3)GalNAc(a1-3)[Fuc(a1-2)]Gal(b1-4)GlcNAc
Method in brief: as §1

[13] = target: Gal(b1-3)GalNAc(b1-3)Gal(a1-4)Gal(b1-4)Glc
Method in brief: as §1

[14] = target: Gal(b1-3)GalNAc(b1-4)Gal(b1-4)Glc
Method in brief: as §1

[15] = target: Gal(b1-3)GalNAc(b1-4)[Neu5Ac(a2-3)]Gal(b1-4)Glc
Method in brief: as §1

[16] = target: Gal(b1-3)GlcNAc
Method in brief: as §1

[17] = target: Gal(b1-3)GlcNAc(a1-3)Gal(b1-4)GlcNAc
Method in brief: as §1

[18] = target: Gal(b1-3)GlcNAc(a1-6)Gal(b1-4)GlcNAc
Method in brief: as §1

[19] = target: Gal(b1-3)GlcNAc(b1-2)Man(a1-3)[Gal(b1-3)GlcNAc(b1-2)Man(a1-6)]Man(b1-4)GlcNAc(b1-4)GlcNAc
Method in brief: as §1

[20] = target: Gal(b1-3)GlcNAc(b1-2)Man(a1-3)[Gal(b1-3)GlcNAc(b1-2)Man(a1-6)]Man(b1-4)GlcNAc(b1-4)[Fuc(a1-6)]GlcNAc
Method in brief: as §1

[21] = target: Gal(b1-3)GlcNAc(b1-2)Man(a1-3)[GlcNAc(b1-4)][Gal(b1-3)GlcNAc(b1-2)Man(a1-6)]Man(b1-4)GlcNAc(b1-4)GlcNAc
Method in brief: as §1

[22] = target: Gal(b1-3)GlcNAc(b1-2)[Gal(b1-3)GlcNAc(b1-6)]Man(a1-6)[Gal(b1-3)GlcNAc(b1-2)Man(a1-3)]Man(b1-4)GlcNAc(b1-4)GlcNAc
Method in brief: as §1

[23] = target: Gal(b1-3)GlcNAc(b1-3)Gal(b1-3)GlcNAc
Method in brief: as §1

[24] = target: Gal(b1-3)GlcNAc(b1-3)Gal(b1-4)Glc
Method in brief: as §1

[25] = target: Gal(b1-3)GlcNAc(b1-3)Gal(b1-4)GlcNAc
Method in brief: as §1

[26] = target: Gal(b1-3)GlcNAc(b1-3)Gal(b1-4)GlcNAc(b1-6)[Gal(b1-3)GlcNAc(b1-3)]Gal(b1-4)Glc
Method in brief: as §1

[27] = target: Gal(b1-3)GlcNAc(b1-3)Gal(b1-4)[Fuc(a1-3)]GlcNAc(b1-6)[Gal(b1-3)GlcNAc(b1-3)]Gal(b1-4)Glc
Method in brief: as §1

[28] = target: Gal(b1-3)GlcNAc(b1-3)GalNAc
Method in brief: as §1

[29] = target: Gal(b1-3)GlcNAc(b1-6)Gal(b1-4)GlcNAc
Method in brief: as §1

[30] = target: Gal(b1-3)GlcNAc(b1-6)GalNAc
Method in brief: as §1

[31] = target: Gal(b1-3)GlcNAc6S
Method in brief: as §1

[32] = target: Gal(b1-3)[Fuc(a1-4)]GlcNAc
Method in brief: as §1

[33] = target: Gal(b1-3)[Fuc(a1-4)]GlcNAc(b1-2)Man(a1-3)[Gal(b1-3)[Fuc(a1-4)]GlcNAc(b1-2)Man(a1-6)]Man(b1-4)GlcNAc(b1-4)[Fuc(a1-6)]GlcNAc
Method in brief: as §1

[34] = target: Gal(b1-3)[Fuc(a1-4)]GlcNAc(b1-3)Gal(b1-3)[Fuc(a1-4)]GlcNAc
Method in brief: as §1

[35] = target: Gal(b1-3)[Fuc(a1-4)]GlcNAc(b1-3)Gal(b1-4)GlcNAc
Method in brief: as §1

[36] = target: Gal(b1-3)[Fuc(a1-4)]GlcNAc(b1-3)Gal(b1-4)[Fuc(a1-3)]GlcNAc
Method in brief: as §1

[37] = target: Gal(b1-3)[Fuc(a1-4)]GlcNAc(b1-6)GalNAc
Method in brief: as §1

[38] = target: Gal(b1-3)[GlcNAc(b1-6)]GalNAc
Method in brief: as §1

[39] = target: Gal(b1-3)[Neu5Ac(a2-6)]GalNAc
Method in brief: as §1

[40] = target: Gal(b1-3)[Neu5Ac(a2-6)]GlcNAc(b1-6)Gal(b1-4)Glc
Method in brief: as §1

[41] = target: Gal(b1-3)[Neu5Ac(b2-6)]GalNAc
Method in brief: as §1

[42] = target: Gal(b1-4)Gal
Method in brief: as §1

[43] = target: Gal(b1-4)GalNAc(a1-3)[Fuc(a1-2)]Gal(b1-4)GlcNAc
Method in brief: as §1

[44] = target: Gal(b1-4)GalNAc(b1-3)[Fuc(a1-2)]Gal(b1-4)GlcNAc
Method in brief: as §1

[45] = target: Gal(b1-4)Glc
Method in brief: as §1

[46] = target: Gal(b1-4)Glc6S
Method in brief: as §1

[47] = target: Gal(b1-4)GlcNAc
Method in brief: as §1

[48] = target: Gal(b1-4)GlcNAc(a1-6)Gal(b1-4)GlcNAc
Method in brief: as §1

[49] = target: Gal(b1-4)GlcNAc(b1-2)Man
Method in brief: as §1

[50] = target: Gal(b1-4)GlcNAc(b1-2)Man(a1-3)Man(b1-4)GlcNAc(b1-4)GlcNAc
Method in brief: as §1

[51] = target: Gal(b1-4)GlcNAc(b1-2)Man(a1-3)[Gal(b1-4)GlcNAc(b1-2)Man(a1-6)]Man(b1-4)GlcNAc(b1-4)GlcNAc
Method in brief: as §1

[52] = target: Gal(b1-4)GlcNAc(b1-2)Man(a1-3)[Gal(b1-4)GlcNAc(b1-2)Man(a1-6)]Man(b1-4)GlcNAc(b1-4)[Fuc(a1-6)]GlcNAc
Method in brief: as §1

[53] = target: Gal(b1-4)GlcNAc(b1-2)Man(a1-3)[Gal(b1-4)GlcNAc(b1-2)][GlcNAc(b1-4)]Man(b1-4)GlcNAc(b1-4)GlcNAc
Method in brief: as §1

[54] = target: Gal(b1-4)GlcNAc(b1-2)Man(a1-3)[GlcNAc(b1-2)Man(a1-6)]Man(b1-4)GlcNAc(b1-4)GlcNAc
Method in brief: as §1

[55] = target: Gal(b1-4)GlcNAc(b1-2)Man(a1-3)[Man(a1-6)]Man(b1-4)GlcNAc(b1-4)GlcNAc
Method in brief: as §1

[56] = target: Gal(b1-4)GlcNAc(b1-2)Man(a1-6)Man(b1-4)GlcNAc(b1-4)GlcNAc
Method in brief: as §1

[57] = target: Gal(b1-4)GlcNAc(b1-2)Man(a1-6)[GlcNAc(b1-2)Man(a1-3)]Man(b1-4)GlcNAc(b1-4)GlcNAc
Method in brief: as §1

[58] = target: Gal(b1-4)GlcNAc(b1-2)Man(a1-6)[Man(a1-3)]Man(b1-4)GlcNAc(b1-4)GlcNAc
Method in brief: as §1

[59] = target: Gal(b1-4)GlcNAc(b1-2)[Gal(b1-4)GlcNAc(b1-4)]Man(a1-3)[Gal(b1-4)GlcNAc(b1-2)Man(a1-6)]Man(b1-4)GlcNAc(b1-4)GlcNAc
Method in brief: as §1

[60] = target: Gal(b1-4)GlcNAc(b1-2)[Gal(b1-4)GlcNAc(b1-4)]Man(a1-3)[Gal(b1-4)GlcNAc(b1-2)[Gal(b1-4)GlcNAc(b1-6)]Man(a1-6)]Man(b1-4)GlcNAc(b1-4)GlcNAc
Method in brief: as §1

B1: CvGal1 (Crassostrea virginica), A7Y0I5 (protein)
chain: MTYQISKISQPFTSYIPNGLHIGKHLLLRGRVSYGTEAFAINLQQNPEPCNGEVAFHFNPRPGEQQCVRNSFDGGSWMDEERDQPHFPFDEGRSFTLRIEVAEEGFRTYVNGKPYVNFSHRLDLGNVHYLYLTEGAEFYDISYQDRYTLPYKSEIPQQMNVGKAVRIRGASQDNDGFSVNFACDPDNENCAFHFNPRPNEGVVVRNANLGGWGDEERDYEAEFPFHPYNYFDAMFICTDDKYLVHVNDKYFTEFNHRGGVDASSFFNIVGNLDIQDVEYFEPLEDDFVKTIPSGLVKGDVLIFRGFMKPGGDTFSINFMNGYSVEDDIAFHLNPRVGEGQVVMNCCMGGAWGDEEREDIPSPLADREPFEVKVVVKKNKFKVYVNGKKCMKFAARGNLEDIKGVNIKGEAYVYEVKLERKLEDSWEYLPGGFRVGGWVVVQAIPKKGSEGFAINFRTGSDEDSDIAFHFNPRLQENCTIRNSCAGGAWGGEERDQPDFPFEKKDTCEIAIQAQPDRFVTYVNGKRYIEFNHRLPLESITCVELTGRADFFEPKFF
- glycan array binding signal (z-score) [1]: -0.276
- glycan array binding signal (z-score) [2]: -0.244
- glycan array binding signal (z-score) [3]: -0.304
- glycan array binding signal (z-score) [4]: -0.271
- glycan array binding signal (z-score) [5]: -0.273
- glycan array binding signal (z-score) [6]: -0.276
- glycan array binding signal (z-score) [7]: -0.302
- glycan array binding signal (z-score) [8]: 0.202
- glycan array binding signal (z-score) [9]: 0.23
- glycan array binding signal (z-score) [10]: -0.261
- glycan array binding signal (z-score) [11]: 3.55
- glycan array binding signal (z-score) [12]: 2.92
- glycan array binding signal (z-score) [13]: -0.244
- glycan array binding signal (z-score) [14]: -0.272
- glycan array binding signal (z-score) [15]: -0.218
- glycan array binding signal (z-score) [16]: -0.202
- glycan array binding signal (z-score) [17]: 2.61
- glycan array binding signal (z-score) [18]: -0.294
- glycan array binding signal (z-score) [19]: 0.06
- glycan array binding signal (z-score) [20]: -0.265
- glycan array binding signal (z-score) [21]: -0.226
- glycan array binding signal (z-score) [22]: -0.209
- glycan array binding signal (z-score) [23]: 0.1
- glycan array binding signal (z-score) [24]: 0.159
- glycan array binding signal (z-score) [25]: 0.004
- glycan array binding signal (z-score) [26]: 1
- glycan array binding signal (z-score) [27]: 0.126
- glycan array binding signal (z-score) [28]: -0.25
- glycan array binding signal (z-score) [29]: -0.271
- glycan array binding signal (z-score) [30]: -0.262
- glycan array binding signal (z-score) [31]: -0.281
- glycan array binding signal (z-score) [32]: -0.234
- glycan array binding signal (z-score) [33]: -0.231
- glycan array binding signal (z-score) [34]: -0.24
- glycan array binding signal (z-score) [35]: -0.099
- glycan array binding signal (z-score) [36]: -0.224
- glycan array binding signal (z-score) [37]: -0.24
- glycan array binding signal (z-score) [38]: -0.254
- glycan array binding signal (z-score) [39]: -0.254
- glycan array binding signal (z-score) [40]: -0.228
- glycan array binding signal (z-score) [41]: -0.29
- glycan array binding signal (z-score) [42]: -0.266
- glycan array binding signal (z-score) [43]: 4.11
- glycan array binding signal (z-score) [44]: 0.428
- glycan array binding signal (z-score) [45]: -0.253
- glycan array binding signal (z-score) [46]: -0.264
- glycan array binding signal (z-score) [47]: -0.263
- glycan array binding signal (z-score) [48]: -0.289
- glycan array binding signal (z-score) [49]: -0.265
- glycan array binding signal (z-score) [50]: -0.222
- glycan array binding signal (z-score) [51]: -0.155
- glycan array binding signal (z-score) [52]: -0.268
- glycan array binding signal (z-score) [53]: -0.195
- glycan array binding signal (z-score) [54]: -0.298
- glycan array binding signal (z-score) [55]: -0.239
- glycan array binding signal (z-score) [56]: -0.233
- glycan array binding signal (z-score) [57]: -0.207
- glycan array binding signal (z-score) [58]: -0.266
- glycan array binding signal (z-score) [59]: 0.455
- glycan array binding signal (z-score) [60]: -0.065
